Data reported in the supplement of paper PMC12217912.
Some of the results follow. Sequences were assembled here from the parent chain. Values near 0.05 are background.

B1: TEV protease; numbered along this chain (parent)
chain: MGESLFKGPRDYNPISSSICHLTNESDGHTTSLYGIGFGPFIITNKHLFRRNNGTLVVQSLHGVFKVKDTTTLQQHLVDGRDMIIIRMPKDFPPFPQKLKFREPQREERICLVTTNFQTKSMSSMVSDTSCTFPSGDGIFWKHWIQTKDGQCGSPLVSTRDGFIVGIHSASNFTNTNNYFTSVPKNFMELLTNQEAQQWVSGWRLNADSVLWGGHKVFMVKPEEPFQPVKEATQL

Variants of: B1
Experiment: raw area under fraction-flipped curve 0-4 h after induction (AUC4h, not background-subtracted), DNA-recorder readout of cleavage of the substrate (dimensionless); higher = more cleavage of the substrate by the protease variant
Conditions: temperature: 34 °C; time window: 0-4 h after rhamnose induction
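Also: Bxb1 expression induced with 0.2% (w/v) L-rhamnose at OD600 near 0.5, cultures sampled hourly, flipped fraction per protease–substrate barcode pair counted by paired-end Illumina sequencing.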

Variant | area with substrate ENLDFQS | area with substrate ENLEFQS | area with substrate ENLFFQS | area with substrate ENLGFQS | area with substrate ENLHFQS | area with substrate ENLIFQS | area with substrate ENLKFQS | area with substrate ENLLFQS | area with substrate ENLNFQS | area with substrate ENLPFQS
MGESLFKGPRDYNPISSSICHLTNESDGHTTSLYGIGFGPFIITNKHLFRRNNGTLVVQSLHGVFKVKDTTTLQQHLVDGRDMIIIRMPKDFPPFPQKLKFREPQREERICLVTTNFQTKSMSSMVSDTSCTFPSGDGIFWKHWIQTKDGQCGSPLVSTRDGFIVGIHSASNFTNTNNYFTSVPKNFMELLTNQEAQQWVSGWRLNADSVLWGGHKVFMVHPEEPFQPVKEATQL [K221H] | 0.0577 | 0.0572 | 0.0741 | 0.0561 | 0.0612 | 0.0746 | 0.0761 | 0.0701 | 0.0571 | 0.0573
MGESLFKGPRDYNPISSSICHLTNESDGHTTSLYGIGFGPFIITNKHLFRRNNGTLVVQSLHGVFKVKDTTTLQQHLVDGRDMIIIRMPKDFPPFPQKLKFREPQREERICLVTTNFQTKSMSSMVSDTSCTFPSGDGIFWKHWIQTKDGQCGSPLVSTRDGFIVGIHSASNFTNTNNYFTSVPKNFMELLTNQVAQQWVSGWRLNADSVLWGGHKVFMVKPEEPFQPVKEATQL [E195V] | 0.0898 |  |  |  |  |  |  |  | 0.0483 | 
MGESLFKGPRDYNPISSSICHLTNESDGHTTSLYGIGFGPFIITNKHLFRRNNGTLVVQSLHGVFKVKDTTTLQQHLVDGRDMIIIRMPKDFPPFPQKLKFREPQREERICLVTTNFQTKSMSSMVSDTSCTFPSGDGIFWKHWIQTKDGQCGSPLVSTRDGFIVGIHSASNFTNTNNYFTSVPKNFMELLTNQGAQQWVSGWRLNADSVLWGGHKVFMVKPEEPFQPVKEATQL [E195G] | 0.0872 | 0.0679 |  |  | 0.106 | 0.0891 | 0.0881 |  | 0.0601 | 
MGESLFKGPRDYNPISSSICHLTNESDGHTTSLYGIGFGPFIITNKHLFRRNNGTLVVQSLHGVFKVKDTTTLQQHLVDGRDMIIIRMPKDFPPFPQKLKFREPQREERICLVTTNFQTKSMSSMVSDTSCTFPSGDGIFWKHWIQTKDGQCGSPLVSTRDGFIVGIHSASNFTNTNNYFTSVPKNWMELLTNQEAQQWVSGWRLNADSVLWGGHKVFMVKPEEPFQPVKEATQL [F187W] | 0.0577 | 0.0514 | 0.0745 |  | 0.0657 | 0.0732 | 0.0516 |  | 0.0636 | 
MGESLFKGPRDYNPISSSICHLTNESDGHTTSLYGIGFGPFIITNKHLFRRNNGTLVVQSLHGVFKVKDTTTLQQHLVDGRDMIIIRMPKDFPPFPQKLKFREPQREERICLVTTNFQTKSMSSMVSDTSCTFPSGDGIFWKHWIQTKDGQCGSPLVSTRDGFIVGIHSASNFTNTNNYFTSVPKNLMELLTNQEAQQWVSGWRLNADSVLWGGHKVFMVKPEEPFQPVKEATQL [F187L] | 0.0635 | 0.0676 | 0.0575 |  |  | 0.092 | 0.0456 | 0.0636 | 0.0609 | 0.0742
MGESLFKGPRDYNPISSSICHLTNESDGHTTSLYGIGFGPFIITNKHLFRRNNGTLVVQSLHGVFKVKDTTTLQQHLVDGRDMIIIRMPKDFPPFPQKLKFREPQREERICLVTTNFQTKSMSSMVSDTSCTFPSGDGIFWKHWIQTKDGQCGSPLVSTRDGFIVGIHSASNFTNTNNYFTSVPKNTMELLTNQEAQQWVSGWRLNADSVLWGGHKVFMVKPEEPFQPVKEATQL [F187T] | 0.0693 | 0.0592 | 0.075 |  | 0.0757 |  |  |  | 0.0259 | 
MGESLFKGPRDYNPISSSICHLTNESDGHTTSLYGIGFGPFIITNKHLFRRNNGTLVVQSLHGVFKVKDTTTLQQHLVDGRDMIIIRMPKDFPPFPQKLKFREPQREERICLVTTNFQTKSMSSMVSDTSCTFPSGDGIFWKHWIQTKDGQCGSPLVSTRDGFIVGIHSASNFTNTNNYFTSVPKNFMELLTNQEAQQWVSGWRLNADSVLWGGMKVFMVKPEEPFQPVKEATQL [H215M] | 0.065 |  | 0.0664 |  |  |  | 0.0694 |  |  | 
MGESLFKGPRDYNPISSSICHLTNESDGHTTSLYGIGFGPFIITNKHLFRRNNGTLVVQSLHGVFKVKDTTTLQQHLVDGRDMIIIRMPKDFPPFPQKLKFREPQREERICLVTTNFQTKSMSSMVSDTSCTFPSGDGIFWKHWIQTKDGQCGSPLVSTRDGFIVGIHSASNFTNTNNYFTSVPKNFMEQLTNQEAQQWVSGWRLNADSVLWGGHKVFMVKPEEPFQPVKEATQL [L190Q] | 0.0684 | 0.0537 | 0.0852 | 0.0635 |  |  | 0.0932 |  |  | 
MGESLFKGPRDYNPISSSICHLTNESDGHTTSLYGIGFGPFIITNKHLFRRNNGTLVVQSLHGVFKVKDTTTLQQHLVDGRDMIIIRMPKDFPPFPQKLKFREPQREERICLVTTNFQTKSMSSMVSDTSCTFPSGDGIFWKHWIQTKDGQCGSPLVSTRDGFIVGIHSASNFTNTNNYFTSVPKNFMELLTNQEAQQWVSGWRLKADSVLWGGHKVFMVKPEEPFQPVKEATQL [N206K] | 0.0635 | 0.0529 |  |  |  |  | 0.0859 | 0.0773 |  | 
MGESLFKGPRDYNPISSSICHLTNESDGHTTSLYGIGFGPFIITNKHLFRRNNGTLVVQSLHGVFKVKDTTTLQQHLVDGRDMIIIRMPKDFPPFPQKLKFREPQREERICLVTTNFQTKSMSSMVSDTSCTFPSGDGIFWKHWIQTKDGQCGSPLVSTRDGFIVGIHSASNFTNTNNYFTSVPKNFMELLTNQEAQQWVSGWALNADSVLWGGHKVFMVKPEEPFQPVKEATQL [R204A] | 0.0703 | 0.12 | 0.0726 | 0.0769 | 0.0743 |  | 0.0838 |  | 0.0778 | 0.0614

Same assay, conditions: temperature: 34 °C; time window: 0-4 h after rhamnose induction

Variant | area with substrate ENLRFQS | area with substrate ENLSFQS | area with substrate ENLTFQS | area with substrate ENLQFQS | area with substrate ENLWFQS | area with substrate ENLVFQS | area with substrate ENLMFQS
MGESLFKGPRDYNPISSSICHLTNESDGHTTSLYGIGFGPFIITNKHLFRRNNGTLVVQSLHGVFKVKDTTTLQQHLVDGRDMIIIRMPKDFPPFPQKLKFREPQREERICLVTTNFQTKSMSSMVSDTSCTFPSGDGIFWKHWIQTKDGQCGSPLVSTRDGFIVGIHSASNFTNTNNYFTSVPKNFMELLTNQEAQQWVSGWRLNADSVLWGGHKVFMVHPEEPFQPVKEATQL [K221H] | 0.0695 | 0.0648 | 0.0854 |  |  |  | 
MGESLFKGPRDYNPISSSICHLTNESDGHTTSLYGIGFGPFIITNKHLFRRNNGTLVVQSLHGVFKVKDTTTLQQHLVDGRDMIIIRMPKDFPPFPQKLKFREPQREERICLVTTNFQTKSMSSMVSDTSCTFPSGDGIFWKHWIQTKDGQCGSPLVSTRDGFIVGIHSASNFTNTNNYFTSVPKNFMELLTNQGAQQWVSGWRLNADSVLWGGHKVFMVKPEEPFQPVKEATQL [E195G] | 0.105 | 0.0602 | 0.0786 | 0.0742 | 0.0897 |  | 
MGESLFKGPRDYNPISSSICHLTNESDGHTTSLYGIGFGPFIITNKHLFRRNNGTLVVQSLHGVFKVKDTTTLQQHLVDGRDMIIIRMPKDFPPFPQKLKFREPQREERICLVTTNFQTKSMSSMVSDTSCTFPSGDGIFWKHWIQTKDGQCGSPLVSTRDGFIVGIHSASNFTNTNNYFTSVPKNWMELLTNQEAQQWVSGWRLNADSVLWGGHKVFMVKPEEPFQPVKEATQL [F187W] | 0.058 | 0.0508 | 0.0501 | 0.0707 | 0.0535 | 0.0674 | 
MGESLFKGPRDYNPISSSICHLTNESDGHTTSLYGIGFGPFIITNKHLFRRNNGTLVVQSLHGVFKVKDTTTLQQHLVDGRDMIIIRMPKDFPPFPQKLKFREPQREERICLVTTNFQTKSMSSMVSDTSCTFPSGDGIFWKHWIQTKDGQCGSPLVSTRDGFIVGIHSASNFTNTNNYFTSVPKNLMELLTNQEAQQWVSGWRLNADSVLWGGHKVFMVKPEEPFQPVKEATQL [F187L] | 0.0813 | 0.0434 | 0.0724 |  |  |  | 
MGESLFKGPRDYNPISSSICHLTNESDGHTTSLYGIGFGPFIITNKHLFRRNNGTLVVQSLHGVFKVKDTTTLQQHLVDGRDMIIIRMPKDFPPFPQKLKFREPQREERICLVTTNFQTKSMSSMVSDTSCTFPSGDGIFWKHWIQTKDGQCGSPLVSTRDGFIVGIHSASNFTNTNNYFTSVPKNTMELLTNQEAQQWVSGWRLNADSVLWGGHKVFMVKPEEPFQPVKEATQL [F187T] |  |  |  | 0.0588 |  |  | 
MGESLFKGPRDYNPISSSICHLTNESDGHTTSLYGIGFGPFIITNKHLFRRNNGTLVVQSLHGVFKVKDTTTLQQHLVDGRDMIIIRMPKDFPPFPQKLKFREPQREERICLVTTNFQTKSMSSMVSDTSCTFPSGDGIFWKHWIQTKDGQCGSPLVSTRDGFIVGIHSASNFTNTNNYFTSVPKNFMELLTNQEAQQWVSGWRLNADSVLWGGMKVFMVKPEEPFQPVKEATQL [H215M] | 0.0683 |  |  |  |  |  | 
MGESLFKGPRDYNPISSSICHLTNESDGHTTSLYGIGFGPFIITNKHLFRRNNGTLVVQSLHGVFKVKDTTTLQQHLVDGRDMIIIRMPKDFPPFPQKLKFREPQREERICLVTTNFQTKSMSSMVSDTSCTFPSGDGIFWKHWIQTKDGQCGSPLVSTRDGFIVGIHSASNFTNTNNYFTSVPKNFMEQLTNQEAQQWVSGWRLNADSVLWGGHKVFMVKPEEPFQPVKEATQL [L190Q] | 0.0614 | 0.0804 |  |  | 0.0673 | 0.0862 | 0.0681
MGESLFKGPRDYNPISSSICHLTNESDGHTTSLYGIGFGPFIITNKHLFRRNNGTLVVQSLHGVFKVKDTTTLQQHLVDGRDMIIIRMPKDFPPFPQKLKFREPQREERICLVTTNFQTKSMSSMVSDTSCTFPSGDGIFWKHWIQTKDGQCGSPLVSTRDGFIVGIHSASNFTNTNNYFTSVPKNFMELLTNQEAQQWVSGWRLKADSVLWGGHKVFMVKPEEPFQPVKEATQL [N206K] | 0.0594 |  | 0.0924 |  |  |  | 
MGESLFKGPRDYNPISSSICHLTNESDGHTTSLYGIGFGPFIITNKHLFRRNNGTLVVQSLHGVFKVKDTTTLQQHLVDGRDMIIIRMPKDFPPFPQKLKFREPQREERICLVTTNFQTKSMSSMVSDTSCTFPSGDGIFWKHWIQTKDGQCGSPLVSTRDGFIVGIHSASNFTNTNNYFTSVPKNFMELLTNQEAQQWVSGWALNADSVLWGGHKVFMVKPEEPFQPVKEATQL [R204A] | 0.0975 | 0.0902 |  |  |  | 0.104 | 
